Test results as given in article PMC2991254.
Results are given in words; binding and its absence hold for the method and conditions named. Some entries that bind do so weakly or less than the wild type.

Assays:
Experiment in all cases: two-hybrid; matrix-based yeast two-hybrid, GAL4-AD and GAL4-BD fusions (pDEST22, pDEST32), in duplicate, at least two reporter genes; medium lacking Leu, Trp and His with 1 mM 3-amino-1,2,4-triazole, growth scored after 4 days at 20°C
Conditions in all cases: remark: other sources report otherwise
[1] = target: SHORT … PHASE (SVP1) (Arabidopsis thaliana), Q9FVC1
[2] = target: AGAMOUS (Arabidopsis thaliana), P17839
[3] = target: T1, AGAMOUS-LIKE24 (Arabidopsis thaliana), O82794
T1 chain: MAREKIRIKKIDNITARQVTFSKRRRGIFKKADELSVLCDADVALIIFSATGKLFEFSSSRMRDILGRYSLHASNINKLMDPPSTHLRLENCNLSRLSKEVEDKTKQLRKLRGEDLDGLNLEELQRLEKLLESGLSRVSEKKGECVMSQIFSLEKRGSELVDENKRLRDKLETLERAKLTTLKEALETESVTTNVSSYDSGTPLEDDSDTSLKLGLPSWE

[4] = target: T2, AGL15 (Arabidopsis thaliana), Q38847
T2 chain: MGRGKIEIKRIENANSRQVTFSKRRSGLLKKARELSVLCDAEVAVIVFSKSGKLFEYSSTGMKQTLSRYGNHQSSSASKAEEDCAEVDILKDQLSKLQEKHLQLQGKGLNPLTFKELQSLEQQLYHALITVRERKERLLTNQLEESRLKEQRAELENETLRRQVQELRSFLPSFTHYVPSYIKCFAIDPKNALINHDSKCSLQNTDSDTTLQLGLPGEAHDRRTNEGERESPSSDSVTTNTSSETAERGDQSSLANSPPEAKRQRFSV

B1: AGAMOUS LIKE14, Q38838 1-221 (protein)
chain: MVRGKTEMKRIENATSRQVTFSKRRNGLLKKAFELSVLCDAEVALIIFSPRGKLYEFSSSSSIPKTVERYQKRIQDLGSNHKRNDNSQQSKDETYGLARKIEHLEISTRKMMGEGLDASSIEELQQLENQLDRSLMKIRAKKYQLLREETEKLKEKERNLIAENKMLMEKCEMQGRGIIGRISSSSSTSELDIDDNEMEVVTDLFIGPPETRHFKKFPPSN
binding [1]: binds

B2: AGAMOUS-LIKE24, O82794 1-220 (protein)
chain: MAREKIRIKKIDNITARQVTFSKRRRGIFKKADELSVLCDADVALIIFSATGKLFEFSSSRMRDILGRYSLHASNINKLMDPPSTHLRLENCNLSRLSKEVEDKTKQLRKLRGEDLDGLNLEELQRLEKLLESGLSRVSEKKGECVMSQIFSLEKRGSELVDENKRLRDKLETLERAKLTTLKEALETESVTTNVSSYDSGTPLEDDSDTSLKLGLPSWE
binding [2]: binds | binding [3]: binds | binding [4]: binds
